Data published in PubChem BioAssay AID624417 (National Center for Advancing Translational Sciences (NCATS), 2012).
About 6,400 (1.6%) of roughly 410,000 compounds were called active. The inconclusive results got no clear call from the source; some entries with a clear call stand among them for comparison. Calls come from the whole dose curve; as a rule, active = well fitted inhibition curve with a large enough effect; inconclusive = small, poorly fitted or top-dose-only effect; inactive = no such curve, though single readings can be large or run the other way. No potency is given beside an inconclusive call; the fits are too rough.

target: Glucagon-like peptide 1 receptor (Homo sapiens) (UniProt P43220); assay: qHTS of GLP-1 Receptor Inverse Agonists (Inhibition Mode); settings: HEK293 GLP-1R CRE-luciferase, luminescence, 24 h, GLP-1R form is constitutively active; series mostly up to 38.3 µM; note: nearly all actives have a fitted effect of over 55% in size
UniProt P43220, sequence (P43220 whole entry, looked up): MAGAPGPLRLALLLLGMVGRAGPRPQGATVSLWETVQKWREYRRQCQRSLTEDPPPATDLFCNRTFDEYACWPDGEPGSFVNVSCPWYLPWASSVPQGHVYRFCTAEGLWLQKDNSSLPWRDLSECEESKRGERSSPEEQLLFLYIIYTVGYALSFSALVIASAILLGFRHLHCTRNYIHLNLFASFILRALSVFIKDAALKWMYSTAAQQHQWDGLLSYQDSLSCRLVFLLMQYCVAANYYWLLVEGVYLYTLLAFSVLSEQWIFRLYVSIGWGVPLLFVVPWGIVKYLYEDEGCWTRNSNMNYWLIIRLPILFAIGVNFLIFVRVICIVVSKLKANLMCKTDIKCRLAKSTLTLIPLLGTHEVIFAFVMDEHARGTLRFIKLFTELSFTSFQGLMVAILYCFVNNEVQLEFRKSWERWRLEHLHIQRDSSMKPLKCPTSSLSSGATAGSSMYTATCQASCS
How it was run: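 Readout was luciferase luminescence, measured 12 min after detection reagent at room temperature. Beforehand, GLP-1R reporter HEK293 cells had sat 12 h, then received compounds for 24 hr at 37 deg C.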
Potency is the fitted concentration of half-maximal effect; tags give direction and shape of the fitted curve.

Row | Structure (SMILES) | Potency
1 | COc1ccc(Cn2nnnc2C(c2ccccc2Cl)N2CCN(C3CCCC3)CC2)cc1 (centres undefined) | inconclusive [inhibitor, single point]
2 | Cc1ccc(NC(=O)c2ccc(S(=O)(=O)N3CC(C)CC(C)C3)cc2)cc1S(=O)(=O)N1CCOCC1 (centres undefined) | inconclusive [inhibitor, partial curve, poor fit]
3 | CCOc1ccc(-c2c(C)nn3c(C)c(C(=O)NCc4cccc(OC)c4)cnc23)cc1OCC | inactive
4 | Cc1ccc(Cl)cc1-c1cc(C(=O)NCc2cc(C(F)(F)F)cc(C(F)(F)F)c2)[nH]n1 | inconclusive [inhibitor, partial curve, poor fit]
5 | C=CCOc1ccc(Cl)cc1CNC1CCCC1 | inconclusive [inhibitor, single point]
6 | COc1ccc(C(=O)/C(C#N)=N/Nc2ccc([N+](=O)[O-])cc2)cc1 | inconclusive [inhibitor, full curve, poor fit]
7 | CCCCCN(C(=O)CCC(=O)OCC(=O)c1ccc(CCC)cc1)c1c(N)n(CCCC)c(=O)[nH]c1=O | inconclusive [inhibitor, single point]
8 | CC1(c2ccc(Cl)cc2)NC(=O)N(CC(=O)N2CCc3ccccc32)C1=O (centres undefined) | inconclusive [inhibitor, partial curve, poor fit]
9 | O=C(c1ccco1)N(Cc1ccc([N+](=O)[O-])cc1)c1ccc(Br)cc1 | inconclusive [inhibitor, single point]
10 | COc1ccc(NC(=S)N/N=C2\CC(C)(C)Oc3ccc(OC)cc32)cc1 | inconclusive [inhibitor, partial curve, poor fit]
11 | CNc1cncc(-c2ccc(NS(C)(=O)=O)cc2)n1 | inconclusive [inhibitor, full curve, poor fit]
12 | O=C1C(NS(=O)(=O)c2cccs2)=C(N2CCN(Cc3ccccc3)CC2)C(=O)c2ccccc21 | inconclusive [inhibitor, single point]
13 | CC(C)CCNC(=O)c1cccc(S(=O)(=O)N2CCc3ccccc32)c1 | inconclusive [inhibitor, single point]
14 | CCOC(=O)c1c(NC(=O)C2C3CCC(O3)C2C(=O)O)sc(C)c1-c1ccc(F)cc1 (centres undefined) | inconclusive [inhibitor, full curve, poor fit]
15 | Cc1ccc(Cl)c(N/C=C/C(=O)c2ccccc2)c1 | inconclusive [inhibitor, single point]
16 | COc1ccc(C(=O)NCC(c2cccs2)N2CCOCC2)cc1OC (centres undefined) | inactive
17 | O=C(Nc1ccc(N2CCOCC2)c(Cl)c1)c1ccc2c(c1)OCCO2 | inactive
18 | CCN(CC)C(=O)C1CC(=O)OC1(C)C (centres undefined) | inactive
19 | COc1ccc(C(=O)C2CC2c2ccc3c(c2)OCO3)cc1 (centres undefined) | inconclusive [inhibitor, single point]
20 | Cc1cccc(NC(=O)c2ccc([N+](=O)[O-])o2)n1 | inactive
21 | S=C(c1c[nH]c2ccc(Br)cc12)N1CCOCC1 | inconclusive [inhibitor, single point]
22 | COc1ccccc1C(O)(c1ccccc1)C(CN1CCOCC1)c1ccccc1 (centres undefined) | active: 10 µM

Row | Structure (SMILES) | Potency
23 | Cn1c(Cc2cccs2)nnc1SC/C=C/c1ccccc1 | inconclusive [inhibitor, single point]
24 | O=C(CCC1N=C2c3ccccc3N=C(SCC(=O)Nc3ccccc3F)N2C1=O)NCc1ccco1 (centres undefined) | inactive
25 | CCn1c(=O)c(C(=O)CN(C)Cc2ccc(F)cc2)c(N)n(Cc2ccccc2)c1=O | active: 8.91 µM
26 | Cc1[nH]c2ccccc2c1/C=N\NC(=O)c1ccccc1Cl | inconclusive [inhibitor, single point]
27 | Cc1ccc(C(=O)c2cc([N+](=O)[O-])ccc2N2CCCCC2)cc1C | inconclusive [inhibitor, partial curve, poor fit]
28 | O=C(Cc1ccc(NC(=O)N2CCCCc3ccccc32)cc1)NCc1ccccc1Br | inconclusive [inhibitor, partial curve]
29 | Cc1cccc(CCNC(=O)C2CCC(CNS(=O)(=O)c3c(C)cc(C)cc3C)CC2)c1 (centres undefined) | inconclusive [inhibitor, single point]
30 | Cc1ccc(NCC(=O)N/N=C/c2c[nH]c3ccccc23)cc1 | inconclusive [inhibitor, single point]
31 | Cc1ccc(-n2c(SCC(=O)Nc3ccc4c(c3)OCO4)nnc2-c2cccs2)cc1 | inconclusive [inhibitor, full curve]
32 | CN1c2ccccc2Oc2nnc(Cl)cc21 | inactive
33 | O=C(CSCc1ccc(Br)cc1)N=Nc1c(O)[nH]c2ccccc12 | inconclusive [inhibitor, single point]
34 | CCOC(=O)c1sc2nc(CC(=O)OC)nc(NCc3ccco3)c2c1C | inactive
35 | COc1ccc(Nc2c3c(nc4ccccc24)CCCC3)cc1OC | inactive
36 | CCSc1nsc(NC(=O)Nc2cccc(C(C)=O)c2)n1 | inconclusive [inhibitor, partial curve, poor fit]
37 | CCOC(=O)c1c(C(C)(C)C)oc2ccc(OCC#N)cc12 | inconclusive [inhibitor, partial curve, poor fit]
38 | Cn1nnnc1SCCNCc1cc(Cl)ccc1OCc1ccccc1 | inconclusive [inhibitor, single point]
39 | CCCc1c(-c2cccc(Cl)c2)ncn1Cc1ccccc1OC | inconclusive [inhibitor, single point]
40 | CCOc1ccccc1N1CCN(C(=O)c2ccc(S(=O)(=O)Nc3ccccc3)cc2)CC1 | inconclusive [inhibitor, single point]
41 | CC1(C)CC(=O)C=C(c2cccc(Br)c2)C1 | inconclusive [inhibitor, single point]
42 | CCOc1ccc(NC(=O)CN(C)C(=O)c2ccc(=O)[nH]c2)cc1OCC | inactive
43 | CCOC(=O)c1cc(-c2ccccc2)nc2c(O)cccc12 | inconclusive [inhibitor, single point]
44 | O=C(NCC1CCN(S(=O)(=O)c2ccccc2)CC1)Nc1ccc(F)cc1F | inconclusive [inhibitor, single point]

Row | Structure (SMILES) | Potency
45 | COc1ccc(C(=O)/C=C/c2ccccc2F)c(OC(=O)c2ccc([N+](=O)[O-])cc2)c1 | inconclusive [inhibitor, single point]
46 | c1ccc(CSc2nccc(-c3ccco3)n2)cc1 | inconclusive [inhibitor, single point]
47 | CC(=O)N(C)c1ccc(NC(=O)Nc2ccc(C)c(C)c2)cc1 | inconclusive [inhibitor, single point]
48 | O=C(NC1CCCCCC1)C1CC(=O)N(c2ccc(Cl)cc2)C1 (centres undefined) | inconclusive [inhibitor, partial curve, poor fit]
49 | Cn1nc(-c2ccccc2F)c2cc(C(=O)NCc3ccc(Cl)cc3)sc21 | inconclusive [inhibitor, partial curve, poor fit]
50 | CC(=O)NC(c1ccccc1)c1cc([N+](=O)[O-])c2cccnc2c1O (centres undefined) | inconclusive [inhibitor, single point]
51 | Cc1cc(C)c2c(CN3CCN(Cc4ccc5c(c4)OCO5)CC3)cc(=O)oc2c1 | inconclusive [inhibitor, full curve]
52 | CC(C)c1ccc(CC(=O)N2CCC2(C)C(=O)Nc2ccc3c(c2)OCO3)cc1 (centres undefined) | inconclusive [inhibitor, single point]
53 | COc1ccccc1CNS(=O)(=O)c1ccc(-c2cc(C(F)(F)F)on2)s1 | inconclusive [inhibitor, single point]
54 | COc1cc(-c2c(C#N)c(N)nc3c2c(C)nn3-c2ccc(C)c(C)c2)cc(OC)c1OC | inactive
55 | C(=C\c1ccccc1)/CN1CCN(Cc2ccc3c(c2)OCO3)CC1 | inconclusive [inhibitor, single point]
56 | CC1Cc2ccccc2N1C(=O)COC(=O)c1c2c(nc3ccccc13)CCCCC2 (centres undefined) | inconclusive [inhibitor, partial curve, poor fit]
57 | CCc1ccccc1NC(=S)N1N=CCC1c1ccccc1 (centres undefined) | inconclusive [inhibitor, partial curve, poor fit]
58 | CCN(CC)c1ccc(/C=N/OCC(=O)N2CCCc3ccccc32)cc1 | inconclusive [inhibitor, single point]
59 | Cc1ccc(C)c(-c2cc(C(=O)Nc3cccnc3)c3ccccc3n2)c1 | inconclusive [inhibitor, single point]
60 | O=C(N/N=C/c1cccc(O)c1)c1ccc2c(c1)OCCO2 | inconclusive [inhibitor, full curve, poor fit]
61 | COc1ccc(CC(=O)NCCc2sc(-c3ccc(Cl)cc3)nc2C)cc1OC | inactive
62 | Cc1cccc(-c2cccc(NC(=O)C3CCCN(C(=O)c4cccnc4)C3)c2)c1 (centres undefined) | inconclusive [inhibitor, single point]
63 | O=C(NC12CC3CC(CC(C3)C1)C2)c1ccc(-c2cccc(Cl)c2)o1 | inconclusive [inhibitor, partial curve, poor fit]
64 | CCc1ccc(Nc2n[n+](-c3ccccc3)c(-c3c(Cl)cccc3Cl)s2)cc1 | inconclusive [inhibitor, partial curve, poor fit]
